Data published in PubChem BioAssay AID743279 (National Center for Advancing Translational Sciences (NCATS), 2014).
About 17,000 (4.7%) of roughly 360,000 compounds were called active. This list was built around the results that the source calls inconclusive (neither active nor inactive); the mix of calls is not that of the screen. Rule as the data show it: active = activity change below about -50%; inconclusive = mostly about -30% to -49%; inactive = weaker than that.

assay: qHTS for Inhibitors of Inflammasome Signaling: IL-1-beta AlphaLISA Primary Screen; conditions: THP-1 LPS/ATP IL-1B secretion, 16 h; at 57.5 µM, hits give low values
Outline: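 THP-1 cells pretreated 1 hr with compounds (up to 57.5 uM final), then stimulated with LPS (250 ng/mL final) plus ATP (1.25 mM final); secreted IL-1B measured by AlphaLISA after 16 hr, decreased signal indicating inhibition.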
% is scaled to controls: 0 for no effect and ±100 for the full control effect.

Structure (SMILES)	activity change
O=C1/C(=C/c2ccncc2)SC(=S)N1Cc1ccccc1	active: -81.7%
CC(=O)c1ccc(Sc2ccccn2)c([N+](=O)[O-])c1	inactive: -24.1%
N#CCCN(Cc1ccccc1)C(=S)NC(=O)c1ccccc1	inactive: 26.7%
O=C(Nc1c(-c2ccc(F)cc2)nc2ccccn12)c1ccc(F)cc1	inconclusive: -33.6%
COc1ccc(Cc2nc(C(=O)Nc3ccccc3)cs2)cc1	active: -53.6%
COc1cc(NC(=O)c2ccc(Br)o2)ccc1NC(=O)c1ccccc1Cl	inconclusive: -36.5%
CCCCn1nnnc1C(c1ccc(OC)cc1)N1CCN(C/C=C/c2ccccc2)CC1 (stereo unspecified)	inconclusive: -31.4%
Cc1c(C(=O)NCc2ccccc2C(F)(F)F)sc(=O)n1Cc1ccccc1C#N	inactive: -19.2%
O=C(COc1ccc(Br)cc1CO)Nc1ccc(S(=O)(=O)N2CCCC2)cc1	active: -57.3%
CC1(c2ccc(Cl)cc2Cl)NC(=O)N(CC(=O)NCCC2=CCCCC2)C1=O (stereo unspecified)	inconclusive: -32%
Cn1c(SCC(=O)Nc2ccccc2[N+](=O)[O-])nnc1C(F)(F)F	inactive: 5.22%
CC(C)CCn1c(-c2nonc2N)nc2ccccc21	inactive: 14%
NC(=O)c1ccsc1NC(=O)COC(=O)c1ccc(Cl)cc1	inactive: 10.4%
COc1ccc(N=Nc2cnc(C)nc2-c2ccccc2)cc1	inconclusive: -44.6%
Cc1ccc(S(=O)(=O)N2CCN(S(=O)(=O)N3CCC(C)CC3)CC2)cc1C	inactive: -7.46%
COc1ccc2nc(SCC(=O)N3CCCCCC3)c(C#N)cc2c1	inconclusive: -35.8%
COc1ccc(OCC(O)CNc2ccc(Br)cc2)cc1 (stereo unspecified)	inconclusive: -46.3%
CN1CCc2c(OCC(=O)N3CCC(Cc4ccccc4)CC3)cccc2C1=O	inconclusive: -38.4%
Cc1cccc(CCN2C(N(C)C)=NC[C@@H]2Cc2ccccc2)c1	active: -59.2%

Structure (SMILES)	activity change
CC[n+]1c(C)cc2c(sc3ccccc32)c1C	inactive: 5.61%
CC1(C)CC[C@]2(C(=O)n3ccnc3)CC[C@]3(C)[C@H](C(=O)C=C4[C@@]5(C)C=C(C#N)C(=O)C(C)(C)[C@@H]5CC[C@]43C)[C@@H]2C1	active: -100%
Cc1cccc(NC(=S)NCc2ccc(F)cc2)c1C	inactive: -10.3%
CC(C)CNC(=O)COc1ccc2c3c(c(=O)oc2c1)CCC3	inconclusive: -35.2%
CC1CCN(C(=O)c2[nH]cnc2C(=O)N[C@@H](C)C(=O)OCc2ccccc2)CC1	active: -69.7%
COc1ccc(OC)c(NC(=O)c2cc3ccccc3cc2OC)c1	inconclusive: -41.7%
CCC(=O)Nc1cc(C(F)(F)F)ccc1N1CCOCC1	inconclusive: -44%
O=C(Nc1ccc2c(c1)OCO2)Nc1ccccc1F	inconclusive: -32.1%
CCOC(=O)c1oc2ccccc2c1NC(=O)CCl	inconclusive: -47.6%
CC1CCC(NC(=O)c2nn(C)c(=O)c3ccccc23)CC1 (stereo unspecified)	inconclusive: -45.6%
CCN(CCNCC(O)COc1ccccc1C(C)C)c1cccc(C)c1 (stereo unspecified)	active: -104%
CCOC(=O)C1(Cc2ccccc2C(F)(F)F)CCN(Cc2ccc(COC)o2)CC1	inconclusive: -45.7%
O=C(Nc1ccc2c(c1)OCO2)N1CCN(c2ccc(F)cc2)CC1	inactive: -12.6%
CNC(=O)CSc1nnc(-c2ccco2)n1-c1ccc(C)cc1	inconclusive: -33.7%
CCc1nc(Nc2cccc(O)c2)c2oc3ccccc3c2n1	inconclusive: -47.9%
CC(C)NC(=O)C1C(c2ccc(C(F)(F)F)cc2)=Nc2ccccc2N1C(=O)c1ccccc1 (stereo unspecified)	inactive: 47.2%
O=C(c1ccccc1F)N1CCN(c2ccc([N+](=O)[O-])c3cccnc23)CC1	inconclusive: -43.5%
CCC(C)(C)C(=O)Nc1ccc(OC)cc1[N+](=O)[O-]	inactive: -17.1%
Clc1ccc(CN2CCCCCC2)cc1	inactive: -0.894%

Structure (SMILES)	activity change
COc1ccc(-n2nnnc2C(c2cccc(OC)c2OC)N2CCN(C/C=C/c3ccccc3)CC2)cc1 (stereo unspecified)	inconclusive: -45.9%
CCOc1ccc(NC(=O)c2csc3c2CCCC3)cc1	inconclusive: -36.1%
CCCc1cc(=O)n2nc(N3CCC(C(=O)N4CCN(c5cccc(OC)c5)CC4)CC3)sc2n1	inconclusive: -38.4%
Nc1ccn([C@@H]2O[C@H](CNCc3cccc(OC4CCCC4)c3)[C@@H](O)[C@H]2O)c(=O)n1	inactive: -1.85%
CCOc1cc2c(C#N)c(N3CCOCC3)nc(N)c2c(N)n1	inconclusive: -42.2%
CC(C1=C(CCN(C)C)Cc2ccccc21)c1ccccn1 (stereo unspecified)	inconclusive: -37.2%
CCOc1ccc(CCN2C(=S)N([C@@H](CC(C)C)CN3CCCC3CN3C(=S)NC[C@@H]3CC(C)C)C[C@@H]2Cc2ccc(O)cc2)cc1 (stereo partly specified)	inconclusive: -48.2%
CCCn1c(O)c(/C=C2\C=NN=C2c2ccccc2)sc1=S	inconclusive: -47.6%
COC(=O)CNC(c1ccccc1)c1cc(C)ccc1NC(=O)c1cccc(Cl)c1 (stereo unspecified)	inconclusive: -48.7%
O=C(CN1C(=O)COc2ccc(S(=O)(=O)N3CCCCC3)cc21)NCc1ccccc1Cl	inconclusive: -30.1%
Cc1ccc(NC(=O)CN(C)CC(=O)Nc2cccc(F)c2)cc1S(=O)(=O)N1CCCCCC1	active: -77.5%
CCCC1NC(=O)c2cc3ccccc3cc2-n2c1nc1cc(Cl)ccc1c2=O (stereo unspecified)	inactive: 22.1%
O=C(COc1cccc2c1CCN(Cc1ccc(Cl)cc1)C2=O)N1CCOCC1	inconclusive: -32.4%
Cc1cc(C)c2oc(C(=O)NCc3ccccc3)cc(=O)c2c1	inconclusive: -32.6%
COc1ccc(CCN(C)C(=O)c2cc(-c3ccccc3)nc3ccccc23)cc1OC	inactive: 17.1%
CCCCCCCC(=O)NNC(=O)c1c(O)c2ccccc2n(CCC)c1=O	inactive: 12.8%
COc1cccc(CNc2nc3ccccc3n2C(C)C)c1O	inconclusive: -42.8%
CCOC(=O)C1=C(N)N2C(=O)C(C)SC2=C(C(=O)OC)C1c1ccccc1OC (stereo unspecified)	inactive: 5.82%
